This sample is rich in variants without activity.
B1: TPR 5TU (parent)
chain: GGAUCUUCUCGAUCUAACAAAAAAGACAAAUCUGCCACAAAGCUUGAGAGCAUCUUCGGAUGCAGAGGCGGCAGCCUUCGGUGGCGCGAUAGCGCCAACGUUCUCAACUAUGACACGCAAAACGCGUGCUCCGUUGAAUGGAGUUUAUCAUG

Variants of: B1
Test: polymerase ribozyme fitness, log enrichment relative to wild type (log ratio); higher = more active; in vitro selection for triplet polymerase activity
How it was run: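 Mutant libraries were PCR-built and transcribed for each subunit of a heterodimeric triplet polymerase ribozyme and selected for one round in triplicate at −7 °C, frozen, before gel excision of extended constructs and streptavidin-bead capture. Input and output libraries were Illumina-sequenced, keeping genotypes with ≥10 input reads and ≥1 read per output. Fitness is a logarithmic ratio of genotype to wild-type enrichment, in base 2, using inverse-variance-weighted replicate averages.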

Q: Which “polymerase ribozyme fitness (log ratio)” value does the source give for GGAUCUUCUCGAUCUAACAAAAAAGACAAAUCUGCCACAAAGCUUGAGAGCAUCUUCGGAUGCAGAGACGGCAGCCUUCGGUGGCGCGAUUGCGCCAACGUUCUCAACUAUGACAGGCAAAACGCGUGCUCCGUUGAAUGGAGUUUAUCAUG [G68A A91U C116G] here?
A: The value was ≤ -4.2.

Q: For GGAUCUUCUCGAUCUAACAAAAAAGACAAAUCUGCCACAAAGCUUGAGAGCAUCUUCGGAUGCAGAGACGGCAGCCUUCGGUGGCGCGAUUGCGCCAACGUUCUCACCUGUGACACGCAAAACGCGUGCUCCGUUGAAUGAAGUUUAUCAUG [G68A A91U A107C A110G G141A], which “polymerase ribozyme fitness (log ratio)” value is on record?
A: The value was ≤ -4.2.

Q: With GGAUCUUCUCGAUCUAACAAAAAAGACAAAUCUGCCACAAAGCUUGAGAGCAUCUUCGGAUGCAGAUGCGGCAGCCUUCGGUGGCGCGAUAUCGCUAACGUUCUCAACUAUGUCACGCAAAACGCGUGCUCCGUUGAAUGGAGUUUAUCAUG [G67U G92U C96U A113U] as the variant, how does the “polymerase ribozyme fitness (log ratio)” value read?
A: Its value is ≤ -4.2.

Q: For GGAUCUUCUCGAUCUAACAAAAAAGACAAAUCUGCCACAAAGCUUGAGAGCAUCUUCGGAUGCAGAUGCGGCAGCCUUCGGUGGCGCGAUAGCGCCAACGUUCUCAACUAUGACACACAAAACGCGUGCUCCGUUGAAUGGAGUUUAUCAAG [G67U G117A U151A], which “polymerase ribozyme fitness (log ratio)” value is on record?
A: Its value is ≤ -4.2.

Q: With GGAUCUUCUCGAUCUAACAAAAAAGACAAAUCUGCCACAAAGCUUGAGAGCAUCUUCGGAUGCAGAGACGGCGGCCUUCGGUGGCGGGAUAGCGCCAACGUUCUCAACUAUGACACGCAAAACGCGUGCUCCGUUGAAUGUAGUUUAUCAUG [G68A A73G C87G G141U] as the variant, how does the “polymerase ribozyme fitness (log ratio)” value read?
A: Its value is ≤ -4.2.

Q: Which “polymerase ribozyme fitness (log ratio)” value does the source give for GGAUCUUCUCGAUCUAACAAAAAAGACAAAUCUGCCACAAAGCUUGAGAGCAUCUUCGGAUGCAGAGACGGCAGCCUUCGGUGGCGCGAUAGCGCUAACGUUCUCAACUAUGACACGCAAAACGCGUGCUCCGUUGAAUGGAGUUUAUCAUG [G68A C96U] here?
A: Its value is -3.68.

Q: Which “polymerase ribozyme fitness (log ratio)” value does the source give for GGAUCUUCUCGAUCUAACAAAAAAGACAAAUCUGCCACAAAGCUUGAGAGCAUCUUCGGAUGCAGAUGCGGCAGCCUUCGGUGGCGCGAUAGCGCCAACGUUCUCAACGAUGACACGCAAAACGCGUGCUCCGUUGAAUGAAGUUUAUCAUG [G67U U109G G141A] here?
A: The value was ≤ -4.2.

Q: Which “polymerase ribozyme fitness (log ratio)” value does the source give for GGAUCUUCUCGAUCUAACAAAAAAGACAAAUCUGCCACAAAGCUUGAGAGCAUCUUCGGAUGCAGAGACGCCAGCCUUCGGUGGCGCGAUAGCGCUAACGUUCUCAACUAUGACACGCAAAACGAGUGCUCCGUUGAAUGGAGUUUAUCAUG [G68A G71C C96U C125A] here?
A: Its value is ≤ -4.2.

Q: For GGAUCUUCUCGAUCUAACAAAAAAGACAAAUCUGCCACAAAGCUUGAGAGCAUCUUCGGAUGCAGAGACGGCAGCCUUCGGUGGCGCGAUAGCGCCUACGUUCUCAACUAUUUCACGCAAAACGCGUGCUCCGUUGAAUGGAGUUUAUCAUG [G68A A97U G112U A113U], which “polymerase ribozyme fitness (log ratio)” value is on record?
A: Its value is ≤ -4.2.

Q: With GGAUCUUCUCGAUCUAACAAAAAAGACAAAUCUGCCACAAAGCUUGAGAGCAUCUUCGGAUGCAGAGACGGCAGCCUUCGGUGGCGAAAUAGCGCCAAUGUUCUCAACUAUGACACGCAAAACGCGUGCUUCGUUGAAUGGAGUUUAUCAUG [G68A C87A G88A C99U C131U] as the variant, how does the “polymerase ribozyme fitness (log ratio)” value read?
A: Its value is ≤ -4.2.

Q: Which “polymerase ribozyme fitness (log ratio)” value does the source give for GGAUCUUCUCGAUCUAACAAAAAAGACAAAUCUGCCACAAAGCUUGAGAGCAUCUUCGGAUGCAGAGACGGCAGCCUUCGGUGGCGCGAUAGCGCCAACGUUCUCAACUAUGACACGCUAAUCGCGUGCUCCGUUGAAUGGAGUUUAACAUG [G68A A119U A122U U148A] here?
A: The value was ≤ -4.2.

Q: Which “polymerase ribozyme fitness (log ratio)” value does the source give for GGAUCUUCUCGAUCUAACAAAAAAGACAAAUCUGCCACAAAGCUUGAGAGCAUCUUCGGAUGCAGAUGCGGCAGCCGUGGGUGGCGCGAUAGCGCCAAUGUUCUCAACUAUGACACGUAAAACGCGUGCUCCGUUGAAUGGAGUUUAUCAUG [G67U U77G C79G C99U C118U] here?
A: The value was ≤ -4.2.

Q: Which “polymerase ribozyme fitness (log ratio)” value does the source give for GGAUCUUCUCGAUCUAACAAAAAAGACAAAUCUGCCACAAAGCUUGAGAGCAUCUUCGGAUGCAGAUACGGCAGCCUUCGGUUGCGCGAUAGCGCCAACGUUCUCAACUAUGACACGCAAAACGCGUGCUCCGUUGAAUGGAGUUUAUCAUG [G67U G68A G83U] here?
A: Its value is ≤ -4.2.

Q: For GGAUCUUCUCGAUCUAACAAAAAAGACAAAUCUGCCACAAAGCUUGAGAGCAUCUUCGGAUGCAGAGACGGCAGCCUUCAGUGGCGGAAUAGCGCCAACGUUCUCAAUUAUGACACGCAAAACGCGUGCUCCGUUGAAUUGAGUUUAUCAUG [G68A G80A C87G G88A C108U G140U], which “polymerase ribozyme fitness (log ratio)” value is on record?
A: Its value is ≤ -4.2.

Q: Which “polymerase ribozyme fitness (log ratio)” value does the source give for GGAUCUUCUCGAUCUAACAAAAAAGACAAAUCUGCCACAAAGCUUGAGAGCAUCUUCGGAUGCAGAGACGGCAGCCUUCGGUGGCGCGAUAGCGCCAAUGUUCUCAAAUAUGACACGCAAAACGCGUGCUCCGUUGAAUGGAGUUUAUCAUG [G68A C99U C108A] here?
A: The value was ≤ -4.2.

Q: For GGAUCUUCUCGAUCUAACAAAAAAGACAAAUCUGCCACAAAGCUUGAGAGCAUCUUCGGAUGCAGAGACGGCAGCCUUCGGUGGUGCGAUAGCGCCAACGUUCUCAAAUAUGACACGCAAAACGCGUGCUCCGUUGAAUGGAGUUUAUCAUG [G68A C85U C108A], which “polymerase ribozyme fitness (log ratio)” value is on record?
A: The value was ≤ -4.2.

Q: Which “polymerase ribozyme fitness (log ratio)” value does the source give for GGAUCUUCUCGAUCUAACAAAAAAGACAAAUCUGCCACAAAGCUUGAGAGCAUCUUCGGAUGCAGAGACGGCAGCCUUCGGUGGCGCGAUAGCGCCAACGUUCUCAACUAUGACACGCAAAACGCGUGCUCCGUUGUAAGGAGUUUAUCAUG [G68A A137U U139A] here?
A: The value was ≤ -4.2.

Q: For GGAUCUUCUCGAUCUAACAAAAAAGACAAAUCUGCCACAAAGCUUGAGAGCAUCUUCGGAUGCAGAGACGGCAGCCUUCGGUGGCGCGAUAGCGCCAACGUUCUCAACUAUGACAUGCAAAACGCGUGCUCCGUUGAAUGGAGUUUAUCAUG [G68A C116U], which “polymerase ribozyme fitness (log ratio)” value is on record?
A: The value was ≤ -4.2.

Q: With GGAUCUUCUCGAUCUAACAAAAAAGACAAAUCUGCCACAAAGCUUGAGAGCAUCUUCGGAUGCAGAGACGGCAGCCUUCGGUGGUGCGAUAGUGCCAACGUUCUCAACUAUGACACGCAAAACGCGUGCUCCGUUGAAUGGAGUUUAUCAUG [G68A C85U C93U] as the variant, how does the “polymerase ribozyme fitness (log ratio)” value read?
A: Its value is ≤ -4.2.

Source: the RNAGym collection of RNA variant scans (doi:10.1073/pnas.2313332121)
